The results in this text go back to patent publication US20100152434A1, “Protein Kinase-binding Nucleosides and Associated Methods” (priority 2007, published 2010).

In this experiment the target is KIT(D816V) (Homo sapiens, UniProt P10721, D816V). Kind of experiment: Ambit kinase phage display ATP-binding-site ligand binding assay. Particulars: read-out: percent inhibition of binding. The source says:
This assay is based on ligand-affinity/protein kinase phage display and was employed essentially as described by Fabian et. al [Nature Biotech. 2005, 23, 329], which is incorporated herein by reference. In this assay, protein kinases are cloned into T7 bacteriophage which express the kinase fusion proteins on the phage capsid. T7 kinase-tagged phage are then screened for binding to ATP-binding-site ligands that have been immobilized on a solid support. Phage are screened for binding to the anchored ligands both in the presence of test compound and in its absence (control). Elution of the bound phage by free ligand (ATP-binding site ligand that is not immobilized on a solid support) followed by determination of the phage titre provides a reliable measure of the ability of test compounds to block binding of target kinases to resin-bound ATP-binding-site ligands. […]
Compound 10 (FIG. 4) was dissolved in DMSO to make a 1,000-X stock solution which was diluted to 10 μM in aqueous assay buffer system. […] The phage titre of the eluates was measured by quantitative PCR or by plaque assays. […]

What is called inhibition is the drop in the measured response relative to a control, in per cent.

Consider `CCOC(=O)C[C@@H]1C(O[Si](C)(C)C(C)(C)C)[C@H](n2cnc3c(NC(=O)Nc4ccccc4)ncnc32)O[C@@H]1CNC(=O)NC` (stereo partly shown) [Compound 10], for which the inhibition at 10 µM lay in the range of 20 to 29%.
